The numbers were not newly measured in patent US12502480B1, “System and method for administration of a substance” (Abusarah, Inc., priority 2025, dated 2025), which cites them from elsewhere.

The conditions of this data set: inhalation of 0.35, 0.5 and 0.7 mg/kg; cited from earlier work.

For the compound `CN[C@]1(c2ccccc2Cl)CCCCC1=O` [esketamine, S-ketamine], the “dose proportionality of Cmax” value is listed as “approximately dose proportional”.
